We go through five molecules from article PMC7504102.

Chains of the proteins cited; added tags and fusions are not shown.
UniProt O75340: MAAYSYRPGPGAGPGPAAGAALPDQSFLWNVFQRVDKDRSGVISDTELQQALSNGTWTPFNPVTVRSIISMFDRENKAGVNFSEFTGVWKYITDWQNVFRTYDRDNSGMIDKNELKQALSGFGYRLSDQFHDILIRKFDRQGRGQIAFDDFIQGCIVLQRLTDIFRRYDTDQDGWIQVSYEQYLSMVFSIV

Numbering of substitutions follows the chain as printed. Names may count otherwise. No constants are given. Whether binding was seen depends on the method and setting. Binding seen in cells or lysates may run through a third protein. Some binding calls cover weakened binding; strength is not graded here. Where a sequence is shown, tags or fusion partners need not be part of it.

The target in experiment [1] is endogenous ALG-2 (human (endogenous in HEK293, HeLa, MCF7)) (UniProt O75340). Kind of experiment: co-IP; IP with anti-ALG-2 mAb from cleared lysates (HEK293 stably expressing untagged SARAF, HeLa, MCF7); HKM, 1% CHAPS, 5 mM EGTA; WB with anti-SARAF and anti-Sec31A pAbs.
Experiment [2] shares this target. Kind of experiment: co-IP; IP with anti-ALG-2 mAb from cleared lysates (HEK293 stably expressing untagged SARAF, HeLa, MCF7); HKM, 1% CHAPS, 100 μM CaCl2 (MCF7: varying or no added CaCl2); WB with anti-SARAF and anti-Sec31A pAbs.
Experiment [3] concerns the target full-length SARAF fused with different tags (SGFP2 and HiBiT), WT (human) (UniProt Q96BY9). Kind of experiment: co-IP; data not shown; full-length SARAF fused with different tags (SGFP2 and HiBiT); in the presence and absence of Ca2+.
Experiment [4] deals with T1, StrepHA-SARAF_CytD-SGFP2 (WT) (human) (UniProt Q96BY9).
T1 sequence: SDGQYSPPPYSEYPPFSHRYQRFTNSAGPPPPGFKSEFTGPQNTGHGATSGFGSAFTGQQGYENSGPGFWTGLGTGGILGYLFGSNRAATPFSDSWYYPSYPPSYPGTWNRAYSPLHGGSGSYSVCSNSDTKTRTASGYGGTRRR
The experiment can be described thus: co-IP; co-IP/HiBiT assay: SGFP2-fused proteins immunoprecipitated with anti-GFP pAb from HEK293 or HEK293 ALG-2KO lysates (with or without co-expressed FLAG-ALG-2); HKM, 1% Nonidet P-40, 10 mM NEM, 10 μM CaCl2; co-precipitated HiBiTHA-SARAF read by lytic HiBiT assay with LgBiT, normalised by ….

For experiment [5], the target named is full-length SARAF fused with different tags (SGFP2 and HiBiT), F228S (human) (UniProt Q96BY9). Kind of experiment: co-IP; data not shown; full-length SARAF fused with different tags (SGFP2 and HiBiT); in the presence and absence of Ca2+.

B1: untagged wild type (WT) SARAF (protein, UniProt Q96BY9 31-339)
chain: WNDPDRMLLRDVKALTLHYDRYTTSRRLDPIPQLKCVGGTAGCDSYTPKVIQCQNKGWDGYDVQWECKTDLDIAYKFGKTVVSCEGYESSEDQYVLRGSCGLEYNLDYTELGLQKLKESGKQHGFASFSDYYYKWSSADSCNMSGLITIVVLLGIAFVVYKLFLSDGQYSPPPYSEYPPFSHRYQRFTNSAGPPPPGFKSEFTGPQNTGHGATSGFGSAFTGQQGYENSGPGFWTGLGTGGILGYLFGSNRAATPFSDSWYYPSYPPSYPGTWNRAYSPLHGGSGSYSVCSNSDTKTRTASGYGGTRRR
In the case of B1, the binding entry in experiment [1] is “no binding (condition: with 5 mM EGTA)”; in experiment [2], “binds”.

B2: full-length SARAF fused with different tags (SGFP2 and HiBiT), WT (protein, UniProt Q96BY9 31-339)
chain: B1 chain
For B2, the binding result in experiment [3] is “binds”.

B3: full-length HiBiTHA-SARAF (WT) (protein, UniProt Q96BY9 31-339)
chain: B1 chain
As for B3, in experiment [4], the binding result was “binds”.

B4: full-length SARAF fused with different tags (SGFP2 and HiBiT), F228S (protein, UniProt Q96BY9 31-339)
chain: B1 chain with F198S
With B4, the binding entry in experiment [5] is reported as “binds”.

B5: endogenous SARAF (protein, UniProt Q96BY9 31-339)
chain: B1 chain
Regarding B5, the binding result in experiment [1] was “no binding (condition: with 5 mM EGTA)”; in experiment [2], “binds”.
